# Data reported in the supplement of paper PMC8728848.
# This is one part of the list.
# B1: Siglec-E (Mus musculus), Q91Y57 (protein)
# chain: MLLLLLLLLLWGIKGVEGQNPQEVFTLNVERKVVVQEGLCVLVPCNFSYLKKRLTDWTDSDPVHGFWYREGTDRRKDSIVATNNPIRKAVKETRNRFFLLGDPWRNDCSLNIREIRKKDAGLYFFRLERGKTKYNYMWDKMTLVVTALTNTPQILLPETLEAGHPSNLTCSVPWDCGWTAPPIFSWTGTSVSFLSTNTTGSSVLTITPQPQDHGTNLTCQVTLPGTNVSTRMTTRLNVSYAPKNLTVTIYQGADSVSTILKNGSSLPISEGQSLRLICSTDSYPPANLSWSWDNLTLCPSKLSKPGLLELFPVHLKHGGVYTCQAQHALGSQHISLSLSPQSSATLSEMMMGTFVGSGVTALLFLSVCILLLAVRSYRRKPARPAVVAPHPDALKVSVSQNPLVESQADDSSEPLPSILEAAPSSTEEEIHYATLSFHEMKPMNLWGQQDTTTEYSEIKFPQRTAWP
# Columns and labels:
# Test in all cases: glycan array binding signal (z-score within array); higher = stronger binding
# Conditions in all cases: glycan notation: IUPAC condensed, linker removed
# [1] = biological target: Neu5Ac(a2-6)GlcNAc(b1-4)GlcNAc(b1-4)GlcNAc
# How it was run: (§1)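 Glycan array data were curated from 3228 arrays in the Consortium for Functional Glycomics database and kept only where the protein sequence was available. Glycan names were converted to IUPAC-condensed notation, and columns mapping to the same glycan were averaged. The binding signal is a within-array Z-score, averaged across arrays of the same protein sequence at different concentrations or buffers and across linkers. Negative Z-scores can be read as non-binding.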
# Neu5Ac(a2-8)Neu5Ac = biological target: Neu5Ac(a2-8)Neu5Ac
# How it was run: as §1
# [2] = biological target: Neu5Ac(a2-8)Neu5Ac(a2-3)Gal(b1-3)GalNAc(b1-4)[Neu5Ac(a2-3)]Gal(b1-4)Glc
# How it was run: as §1
# [3] = biological target: Neu5Ac(a2-8)Neu5Ac(a2-3)Gal(b1-3)GalNAc(b1-4)[Neu5Ac(a2-8)Neu5Ac(a2-3)]Gal(b1-4)Glc
# How it was run: as §1
# [4] = biological target: Neu5Ac(a2-8)Neu5Ac(a2-3)Gal(b1-4)Glc
# How it was run: as §1
# [5] = biological target: Neu5Ac(a2-8)Neu5Ac(a2-3)Gal(b1-4)GlcNAc
# How it was run: as §1
# [6] = biological target: Neu5Ac(a2-8)Neu5Ac(a2-3)[Gal(b1-3)GalNAc(b1-4)]Gal(b1-4)Glc
# How it was run: as §1
# [7] = biological target: Neu5Ac(a2-8)Neu5Ac(a2-3)[GalNAc(b1-4)]Gal(b1-4)Glc
# How it was run: as §1
# [8] = biological target: Neu5Ac(a2-8)Neu5Ac(a2-8)Neu5Ac
# How it was run: as §1
# [9] = biological target: Neu5Ac(a2-8)Neu5Ac(a2-8)Neu5Ac(a2-3)Gal(b1-4)Glc
# How it was run: as §1
# [10] = biological target: Neu5Ac(a2-8)Neu5Ac(a2-8)Neu5Ac(a2-3)[Gal(b1-3)GalNAc(b1-4)]Gal(b1-4)Glc
# How it was run: as §1
# [11] = biological target: Neu5Ac(a2-8)Neu5Ac(a2-8)Neu5Ac(a2-3)[GalNAc(b1-4)]Gal(b1-4)Glc
# How it was run: as §1
# [12] = biological target: Neu5Ac(a2-8)Neu5Ac(a2-8)Neu5Ac(a2-8)Neu5Ac(a2-3)[GalNAc(b1-4)]Gal(b1-4)Glc
# How it was run: as §1
# [13] = biological target: Neu5Ac(a2-8)Neu5Gc(a2-3)Gal(b1-4)GlcNAc
# How it was run: as §1
# [14] = biological target: Neu5Ac(b2-6)Gal(b1-4)GlcNAc
# How it was run: as §1
# Neu5Ac(b2-6)GalNAc = biological target: Neu5Ac(b2-6)GalNAc
# How it was run: as §1
# [15] = biological target: Neu5Ac9Ac(a2-3)Gal(b1-3)GlcNAc
# How it was run: as §1
# [16] = biological target: Neu5Ac9Ac(a2-3)Gal(b1-4)GlcNAc
# How it was run: as §1
# [17] = biological target: Neu5Ac9Ac(a2-6)Gal(b1-4)GlcNAc
# How it was run: as §1
# [18] = biological target: Neu5Gc(a2-3)Gal(b1-3)GlcNAc
# How it was run: as §1
# [19] = biological target: Neu5Gc(a2-3)Gal(b1-3)[Fuc(a1-4)]GlcNAc
# How it was run: as §1
# Neu5Gc(a2-3)Gal(b1-4)Glc = biological target: Neu5Gc(a2-3)Gal(b1-4)Glc
# How it was run: as §1
# [20] = biological target: Neu5Gc(a2-3)Gal(b1-4)GlcNAc
# How it was run: as §1
# [21] = biological target: Neu5Gc(a2-3)Gal(b1-4)GlcNAc(b1-3)Gal(b1-4)GlcNAc(b1-2)Man(a1-3)[Neu5Gc(a2-3)Gal(b1-4)GlcNAc(b1-3)Gal(b1-4)GlcNAc(b1-2)Man(a1-6)]Man(b1-4)GlcNAc(b1-4)GlcNAc
# How it was run: as §1
# [22] = biological target: Neu5Gc(a2-3)Gal(b1-4)[Fuc(a1-3)]GlcNAc
# How it was run: as §1
# [23] = biological target: Neu5Gc(a2-6)Gal(b1-4)GlcNAc
# How it was run: as §1
# Neu5Gc(a2-6)GalNAc = biological target: Neu5Gc(a2-6)GalNAc
# How it was run: as §1
# [24] = biological target: Neu5Gc(a2-8)Neu5Ac(a2-3)Gal(b1-4)GlcNAc
# How it was run: as §1
# [25] = biological target: Neu5Gc(a2-8)Neu5Gc(a2-3)Gal(b1-4)GlcNAc
# How it was run: as §1
# [26] = biological target: Neu5Gc(a2-8)Neu5Gc(a2-3)Gal(b1-4)GlcNAc(b1-3)Gal(b1-4)GlcNAc
# How it was run: as §1
# [27] = biological target: Neu5Gc(a2-8)Neu5Gc(a2-6)Gal(b1-4)GlcNAc
# How it was run: as §1
# [28] = biological target: Neu5Gc(b2-6)Gal(b1-4)GlcNAc
# How it was run: as §1
binder,measurement,setting,value
B1,glycan array binding signal (z-score),[1],-0.827
same,glycan array binding signal (z-score),Neu5Ac(a2-8)Neu5Ac,-0.266
same,glycan array binding signal (z-score),[2],-0.387
same,glycan array binding signal (z-score),[3],0.342
same,glycan array binding signal (z-score),[4],-0.267
same,glycan array binding signal (z-score),[5],-0.57
same,glycan array binding signal (z-score),[6],0.53
same,glycan array binding signal (z-score),[7],-0.369
same,glycan array binding signal (z-score),[8],-0.511
same,glycan array binding signal (z-score),[9],-0.105
same,glycan array binding signal (z-score),[10],-0.374
same,glycan array binding signal (z-score),[11],-0.43
same,glycan array binding signal (z-score),[12],-0.003
same,glycan array binding signal (z-score),[13],-0.419
same,glycan array binding signal (z-score),[14],-0.509
same,glycan array binding signal (z-score),Neu5Ac(b2-6)GalNAc,-0.402
same,glycan array binding signal (z-score),[15],0.055
same,glycan array binding signal (z-score),[16],-0.311
same,glycan array binding signal (z-score),[17],-0.429
same,glycan array binding signal (z-score),[18],-0.188
same,glycan array binding signal (z-score),[19],0.48
same,glycan array binding signal (z-score),Neu5Gc(a2-3)Gal(b1-4)Glc,0.16
same,glycan array binding signal (z-score),[20],-0.227
same,glycan array binding signal (z-score),[21],-0.44
same,glycan array binding signal (z-score),[22],-0.451
same,glycan array binding signal (z-score),[23],0.284
same,glycan array binding signal (z-score),Neu5Gc(a2-6)GalNAc,0.162
same,glycan array binding signal (z-score),[24],-0.472
same,glycan array binding signal (z-score),[25],-0.578
same,glycan array binding signal (z-score),[26],-0.554
same,glycan array binding signal (z-score),[27],-0.692
same,glycan array binding signal (z-score),[28],0.02
